# Article PMC12136788
# The list shows a part of the results.
# B1: chr15:41900134:41900198:-|3pUTR|ENSG00000103966|msi1_unk|FALSE|overlapping (ssRNA)
# RNA: GGGAGUUCUACAGUCCGACGAUCAGGGCACCUGGAGGCAGCAAAGAUUAUCUUAUUUAUUUUAUUUUGUUUUCUGCUAUAUUUAGAGUGGCAAAAAAAUAGAGCAGAGGGUUUCUGCUGUCUCCAGACUGUCUACCAAAGAGACAACAGAGGAUUGAGCAUCA
# B2: chr10:89738052:89738153:+|CDS|ENSG00000138182|unk|total|mutant (ssRNA)
# RNA: GGGAGUUCUACAGUCCGACGAUCCUGGAACAACAAAUUGAAAAAUUGCAGGCAGAAGUAAAAGGCUAUAAGGAUGAAAACAACCGACUAAAGGAGAAGGAGCAUAAAAACCAAGAUGACCUACUAAAAGAAAAAGAAACUCUUCAACAGAGGAUUGAGCAUCA
# B3: ENSG00000198589:be:win_6751|CDS|ENSG00000198589|bound_else_gene|NA|bound_elsewhere_windowed (ssRNA)
# RNA: GGGAGUUCUACAGUCCGACGAUCUUGCCCACCAACUUCAGAGAUUUGUCCAAGCCAAUAGGAGCUCUGAACCCAAAAAGAGCAGCAUUCUUCGCUGAGCGUUAUGAAUCAUGGGAAGAUGAUCAAGUUCCAAAGUUUCACUAUCAACAGAGGAUUGAGCAUCA
# B4: chr1:77728514:77728621:-|CDS|ENSG00000077254|unk|FALSE|unique (ssRNA)
# RNA: GGGAGUUCUACAGUCCGACGAUCAGAUCCGCAAACCAUAACCACUGAGGAGACAAUGGAAGAAGACAAGAGCCAGUCGGAUGUAGAUUUUCAGUCUUGUGAAUCUUGUAGCAACAGUGAUAGAGCAGAAAAUGAAAAUGGCUCCAACAGAGGAUUGAGCAUCA
# B5: chr3:7579146:7579247:+|CDS|ENSG00000196277|unk|FALSE|unique (ssRNA)
# RNA: GGGAGUUCUACAGUCCGACGAUCGCCAGAGGGGUUCUCAAGUGUGACAUUACAGAUCUCCAAAUCAUUUGCUCCUUGGGAUAUAGCAUUCUUCUCAUGGUCACAUGUACUGUGUAUGCCAUCAAGACUCGGGGUGUACCCGAGCAACAGAGGAUUGAGCAUCA
# B6: ENSG00000100242:stop:overlap|stop_codon|ENSG00000100242|stop_codon|NA|stop_codon (ssRNA)
# RNA: GGGAGUUCUACAGUCCGACGAUCGGGGCCACCCCGAGUACACCUGCAUCUACCGCUUCAGAGUGCAUGGGGAGCCCGCCCACUAGCCCUGCUUACUGGUGCCUGCUGCCAGCCAUCUGGGAGUGGGUGAACAGCACCCCGCCGCAACAGAGGAUUGAGCAUCA
# B7: chr12:25205306:25205412:-|3pUTR|ENSG00000133703|unk|FALSE|unique (ssRNA)
# RNA: GGGAGUUCUACAGUCCGACGAUCGUCAUAUCAAACAUUAAAAAUGACCACUCUUUUAAUUGAAAUUAACUUUUAAAUGUUUAUAGGAGUAUGUGCUGUGAAGUGAUCUAAAAUUUGUAAUAUUUUUGUCAUGAACUGUACUACCAACAGAGGAUUGAGCAUCA
# B8: chr18:55223968:55224079:-|3pUTR|ENSG00000196628|unk|total|mutant (ssRNA)
# RNA: GGGAGUUCUACAGUCCGACGAUCUAUAAAGCUUUGUUUGUCCCGUGCUCUUUUGCUAUAAAACCGACUGCCGUACACCCCCGCCGGAAAAAAAAAAAACUAAAUUUAAAAAUAAAAAAUAUAUUUGGCUUAUUUUUCGCAGGACAACAGAGGAUUGAGCAUCA
# B9: chr10:119072878:119073036:-|CDS|ENSG00000107581|unk|total|mutant (ssRNA)
# RNA: GGGAGUUCUACAGUCCGACGAUCCUUUUAACUCCAUGGGUUAAAUUCCUGUGGGAGUCUUACAGGCAGUGUUUGGACCUUCUCCGAAACAAUUCCCGAGCCGAGCGCCUGUACCAUGAUAUUGCCCAGCAAGGUAAGAUGAGACAACAGAGGAUUGAGCAUCA
# B10: chr17:48058596:48058697:+|CDS|ENSG00000082641|msi1|FALSE|unique (ssRNA)
# RNA: GGGAGUUCUACAGUCCGACGAUCCAAUGGCACAGCCAAUGACACAGCAGGCCCAGAGCUGCCUGACCCUUUGGGGGGUCUGUUAGAUGAAGCUAUGUUGGAUGAGAUCAGCCUUAUGGACCUGGCCAUUGAAGAAGGCUUUAACAACAGAGGAUUGAGCAUCA
# B11: chr9:21140631:21140982:-|three_prime_utr|ENSG00000177047|control|control|control (ssRNA)
# RNA: GGGAGUUCUACAGUCCGACGAUCGUGACUCUGGUCAAUUCAAAAGACUCUUAUUUCGGCUUUAAUCACAGAAUUGACUGAAUUAGUUCUGCAAAUACUUUGUCGGUAUAUUAAGCCAGUAUAUGUUAAAAAGACUUAGGUUCACAACAGAGGAUUGAGCAUCA
# B12: ENSG00000107863:be:win_951|CDS|ENSG00000107863|bound_else_gene|NA|bound_elsewhere_windowed (ssRNA)
# RNA: GGGAGUUCUACAGUCCGACGAUCCACAUCACCACCAUUAUCAAUUCCCACCACUCAUCUAAUUCAUCAGCCUGCAGGCUCCAGAUCACUGGAACCUUCUGGAAUUUUACUUAAGUCUGGAAAUUACAGUGGACAUUCUGAUGGCAACAGAGGAUUGAGCAUCA
# B13: chr15:77046177:77046188:-|3pUTR|ENSG00000140391|msi1_unk|FALSE|overlapping (ssRNA)
# RNA: GGGAGUUCUACAGUCCGACGAUCUUAAUCAAAGUUGGCUUUAUAGGAGGAGUAUAAUGUAUGCACUACUGUUUUAAAAGAAUUAGUGUGAGUGUGUUUUUGUAUGAAUGAGCCCAUUCAUGGUAAGUCUUAAGCUUGUUGGAACAACAGAGGAUUGAGCAUCA
# B14: chr11:1889147:1890584:-|CDS|ENSG00000283787|control|control|control (ssRNA)
# RNA: GGGAGUUCUACAGUCCGACGAUCGCCACCCGGCUUCCAGGCCUCAGUGCCCAGAGAGGCUAGUGCCAGGGUUGUGGUGCCCAUAGCCCCGACCUGCCGCUCGCUGGAGUCCUCACCGCACAGCCUGGUCCCCAUGGGCCCUGGCAACAGAGGAUUGAGCAUCA
# Biological target: T1, UNK ZnF1-6 (called full-length) (human, UniProt Q9C0B0 30-357)
# T1 sequence: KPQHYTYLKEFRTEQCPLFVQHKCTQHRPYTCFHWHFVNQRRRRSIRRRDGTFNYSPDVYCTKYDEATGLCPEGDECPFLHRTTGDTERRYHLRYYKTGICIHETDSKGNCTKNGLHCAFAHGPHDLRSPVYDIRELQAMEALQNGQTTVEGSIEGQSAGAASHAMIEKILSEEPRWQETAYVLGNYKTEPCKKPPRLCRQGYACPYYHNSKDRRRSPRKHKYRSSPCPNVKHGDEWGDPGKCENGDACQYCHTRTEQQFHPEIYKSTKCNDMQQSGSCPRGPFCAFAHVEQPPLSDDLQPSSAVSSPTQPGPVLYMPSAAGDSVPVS
# Assay: nsRBNS (natural sequence RNA bind-n-seq); RBNS binding buffer (assumed for nsRBNS): 25 mM Tris pH 7.5, 150 mM KCl, 3 mM MgCl2, 0.01% Triton X-100, 500 ug/ml BSA, 20 U/ml SUPERase-In, 4 C; UNK is unkempt and MSI1 is Musashi-1; names of the RNAs are library labels; protein concentration not given here; high values mean tight binding
row,Binder,binding signal
1,B1,0.58 enrichment R
2,B2,0.451 enrichment R
3,B3,0.472 enrichment R
4,B4,0.733 enrichment R
5,B5,0.647 enrichment R
6,B6,0.815 enrichment R
7,B7,0.945 enrichment R
8,B8,0.707 enrichment R
9,B9,0.34 enrichment R
10,B10,0.652 enrichment R
11,B11,0.716 enrichment R
12,B12,0.554 enrichment R
13,B13,0.512 enrichment R
14,B14,1.07 enrichment R
